One assay relates to HSkMC. The experiment in a line: cytotoxicity call (relative viability < 0.9). As to conditions: 10 µM.
In the next assay the test system is HepG2. The experiment in a line: cytotoxicity call (relative viability < 0.9). As to conditions: 10 µM.
Another assay concerns S. aureus RN4220. Briefly: growth inhibition call (relative growth <= 0.2). The conditions noted are these: 50 µM.

The structures appear in SMILES notation. Some of the results follow.

As to `COc1ccc(NC(=O)CSC2=NC(C)=C(C(=O)Nc3nc4ccccc4s3)[C@H](c3ccco3)C2C#N)cc1` (stereo partly specified), the cytotoxicity call in the assay with HSkMC and in the assay on HepG2 was “inactive” each time. Moreover, the growth inhibition call in the assay with S. aureus RN4220 was “inactive”.

Turning to `C[C@@H]1CN([C@@H](C)CO)C(=O)CCCn2cc(nn2)CO[C@H]1CN(C)S(=O)(=O)c1ccccc1C#N`, the cytotoxicity call in the assay with HSkMC and with HepG2 was “inactive” each time. In addition, the growth inhibition call with S. aureus RN4220 is “inactive”.

For the molecule `CNC(=O)N1CCC(C(N)=O)CC1`, the cytotoxicity call in the assay on HSkMC and in the assay with HepG2 was “inactive” each time. The growth inhibition call with S. aureus RN4220 was “inactive”.

For the molecule `COc1ccc(CNC(=O)C[C@H]2C[C@H]3c4cc(NS(=O)(=O)c5ccc(F)cc5)ccc4O[C@H]3[C@@H](CO)O2)cc1`, the cytotoxicity call in the assay with HSkMC and in the assay with HepG2 was “inactive” each time. Moreover, the growth inhibition call in the assay with S. aureus RN4220 is “inactive”.

`Cc1ccc(S(=O)(=O)O)cc1.NC1CCN(c2nc3c(cc2F)c(=O)c(C(=O)O)cn3-c2ccc(F)cc2F)C1.O` (stereo unspecified): the cytotoxicity call in the assay on HSkMC and in the assay with HepG2 was “inactive” in each case. Besides, the growth inhibition call in the assay on S. aureus RN4220 was “inactive”.

Turning to `CO[C@@H](CN(C)S(=O)(=O)c1cccc(Cl)c1)[C@@H](C)CN([C@@H](C)CO)S(=O)(=O)c1ccc(Cl)cc1`, the cytotoxicity call with HSkMC and in the assay with HepG2 was “inactive” each time. In addition, the growth inhibition call in the assay on S. aureus RN4220 is “inactive”.

With `C[C@@H]1CN([C@@H](C)CO)C(=O)c2cc(NC(=O)Nc3ccccc3)ccc2O[C@@H]1CN(C)S(=O)(=O)c1cn(C)cn1`, the cytotoxicity call in the assay with HSkMC and in the assay with HepG2 was “inactive” each time. Further, in the assay with S. aureus RN4220, the growth inhibition call was “inactive”.

Regarding `O=c1c2ccccc2oc2ccc(O)cc12`, the cytotoxicity call in the assay with HSkMC and with HepG2 was “inactive” in each case. In the assay with S. aureus RN4220, the growth inhibition call was “inactive”.

Turning to `Cc1noc(C)c1NC(=O)N(C)C[C@H]1Oc2ncc(C#CCN(C)C)cc2C(=O)N([C@H](C)CO)C[C@@H]1C`, the cytotoxicity call with HSkMC and with HepG2 was “inactive” throughout. For the same molecule, in the assay with S. aureus RN4220, the growth inhibition call is “inactive”.

`O=C(C[C@@H]1CC[C@H]2[C@@H](COC[C@@H](O)CN2S(=O)(=O)c2ccccc2)O1)NCc1ccc2c(c1)OCO2`: the cytotoxicity call with HSkMC and in the assay with HepG2 was “inactive” in each case. Further, the growth inhibition call with S. aureus RN4220 was “inactive”.

Consider `C[C@H](CO)N1C[C@H](C)[C@H](CN(C)S(=O)(=O)c2ccc(F)cc2)Oc2cc(C#Cc3ccncc3)ccc2S1(=O)=O`, for which the cytotoxicity call in the assay on HSkMC was “inactive”. Moreover, in the assay with HepG2, the cytotoxicity call is “active”. The growth inhibition call in the assay with S. aureus RN4220 is “inactive”.

In the case of `N#Cc1ccc[nH]c1=O`, the cytotoxicity call in the assay with HSkMC and in the assay on HepG2 was “inactive” in each case. In the assay with S. aureus RN4220, the growth inhibition call was “inactive”.

As for `C[C@@H]1CCCCO[C@@H](CN(C)C(=O)Nc2ccc(C(F)(F)F)cc2)[C@H](C)CN([C@@H](C)CO)C(=O)c2cc(NS(C)(=O)=O)ccc2O1`, the cytotoxicity call in the assay on HSkMC and in the assay on HepG2 was “inactive” each time. Further, in the assay on S. aureus RN4220, the growth inhibition call was “inactive”.

Regarding `O=C(C[C@@H]1C[C@H]2c3cc(NC(=O)c4ccc5c(c4)OCO5)ccc3O[C@H]2[C@H](CO)O1)NCc1ccccn1`, the cytotoxicity call in the assay with HSkMC and in the assay on HepG2 was “inactive” in each case. In addition, in the assay with S. aureus RN4220, the growth inhibition call is “inactive”.

On to `COCc1cn(CC[C@H]2CC[C@H](NC(=O)CCN3CCCCC3)[C@@H](CO)O2)nn1`, for which the cytotoxicity call with HSkMC and with HepG2 was “inactive” each time. Besides, the growth inhibition call with S. aureus RN4220 was “inactive”.

For the molecule `C[C@@H]1CCCCO[C@H](CN(C)S(=O)(=O)c2ccccc2)[C@H](C)CN([C@H](C)CO)C(=O)c2cc(NC(=O)C3CCCCC3)ccc2O1`, the cytotoxicity call in the assay with HSkMC and with HepG2 was “inactive” throughout. Besides, the growth inhibition call with S. aureus RN4220 is “inactive”.

Consider `C[C@H]1CN([C@@H](C)CO)C(=O)Cc2cc(NC(=O)Nc3ccccc3)ccc2O[C@H]1CN(C)Cc1ccc(Oc2ccccc2)cc1`, for which the cytotoxicity call in the assay on HSkMC and with HepG2 was “active” throughout. For the same molecule, in the assay on S. aureus RN4220, the growth inhibition call was “inactive”.

In the case of `COc1cc(C(=O)NCc2ccc(OCCN(C)C)cc2)cc(OC)c1OC.Cl`, the cytotoxicity call in the assay on HSkMC and in the assay on HepG2 was “inactive” each time. Moreover, the growth inhibition call in the assay with S. aureus RN4220 is “inactive”.

Regarding `Cc1c(NC(=O)c2cc3c(s2)CCCC3)cccc1-c1cn(C)c(=O)c(Nc2ccc([C@H]3C(=O)N(C)CCN3C)cc2)n1`, the cytotoxicity call in the assay with HSkMC and with HepG2 was “inactive” in each case. Moreover, the growth inhibition call in the assay with S. aureus RN4220 is “inactive”.

Turning to `C[C@@H]1CN([C@H](C)CO)S(=O)(=O)c2ccc(C#Cc3cccnc3)cc2O[C@H]1CN(C)CC1CCOCC1`, the cytotoxicity call in the assay with HSkMC and in the assay on HepG2 was “inactive” each time. The growth inhibition call in the assay with S. aureus RN4220 was “inactive”.

Regarding `CC(O)(CN)C1CC1` (stereo unspecified), the cytotoxicity call in the assay on HSkMC and with HepG2 was “inactive” throughout. In the assay with S. aureus RN4220, the growth inhibition call is “inactive”.

For the molecule `CCCNC(=O)Nc1ccc2c(c1)OC[C@@H](C)N(C(=O)C1CCOCC1)C[C@H](C)[C@@H](OC)CN(C)C2=O`, the cytotoxicity call in the assay with HSkMC and with HepG2 was “inactive” in each case. In the assay on S. aureus RN4220, the growth inhibition call was “inactive”.

With `C[C@@H]1CCCCO[C@@H](CN(C)C(=O)Nc2ccc(F)cc2)[C@H](C)CN([C@@H](C)CO)C(=O)c2cc(NS(=O)(=O)c3ccc(F)cc3)ccc2O1`, the cytotoxicity call in the assay on HSkMC and in the assay with HepG2 was “inactive” each time. For the same molecule, in the assay on S. aureus RN4220, the growth inhibition call is “inactive”.

On to `CCCC#Cc1cnc2c(c1)C(=O)N([C@@H](C)CO)C[C@H](C)[C@@H](CN(C)S(=O)(=O)c1cccc(OC)c1)O2`, for which the cytotoxicity call in the assay with HSkMC and in the assay with HepG2 was “inactive” in each case. Further, in the assay on S. aureus RN4220, the growth inhibition call was “inactive”.

On to `Cc1ccc(S(=O)(=O)Nc2ccc3c(c2)C(=O)N([C@@H](C)CO)C[C@@H](C)[C@@H](CN(C)CC2CCCCC2)OCCCC[C@@H](C)O3)cc1`, for which the cytotoxicity call in the assay with HSkMC is “inactive”. Moreover, the cytotoxicity call with HepG2 was “active”. The growth inhibition call with S. aureus RN4220 is “inactive”.

Consider `COc1ccc(CN(C)C[C@@H]2Oc3ccc(NC(=O)CCCN(C)C)cc3C(=O)N([C@H](C)CO)C[C@H]2C)cc1`, for which the cytotoxicity call in the assay on HSkMC (human skeletal muscle cells) and with HepG2 was “inactive” each time. Moreover, the growth inhibition call with S. aureus RN4220 is “inactive”.

For `COc1c(C)cc(-c2cc3c(c(-c4ccccc4)n2)[Si](C(C)C)(C(C)C)O[C@H]3c2ccccc2)cc1C`, the cytotoxicity call in the assay with HSkMC and in the assay with HepG2 was “inactive” in each case. Also, the growth inhibition call in the assay on S. aureus RN4220 is “inactive”.

These data come from the antibiotic and cytotoxicity screens of Wong et al. (2023).
